# The other results are listed elsewhere or left out.
# What was measured:
# Experiment in all cases: glycan array binding signal (z-score within array); higher = stronger binding
# Conditions in all cases: glycan notation: IUPAC condensed, linker removed
# [1] = target: Fuc(a1-2)Gal(b1-4)[Fuc(a1-3)]GlcNAc(b1-2)Man(a1-3)[Fuc(a1-2)Gal(b1-4)[Fuc(a1-3)]GlcNAc(b1-2)Man(a1-6)]Man(b1-4)GlcNAc(b1-4)[Fuc(a1-6)]GlcNAc
# Method in brief: (§1)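 Glycan array data were curated from 3228 arrays in the Consortium for Functional Glycomics database and kept only where the protein sequence was available. Glycan names were converted to IUPAC-condensed notation, and columns mapping to the same glycan were averaged. The binding signal is a within-array Z-score, averaged across arrays of the same protein sequence at different concentrations or buffers and across linkers. Negative Z-scores can be read as non-binding.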
# [2] = target: Fuc(a1-2)Gal(b1-4)[Fuc(a1-3)]GlcNAc(b1-2)[Fuc(a1-2)Gal(b1-4)[Fuc(a1-3)]GlcNAc(b1-4)]Man(a1-3)[Fuc(a1-2)Gal(b1-4)[Fuc(a1-3)]GlcNAc(b1-2)Man(a1-6)]Man(b1-4)GlcNAc(b1-4)GlcNAc
# Method in brief: as §1
# [3] = target: Fuc(a1-2)Gal(b1-4)[Fuc(a1-3)]GlcNAc(b1-3)Gal(b1-4)[Fuc(a1-3)]GlcNAc
# Method in brief: as §1
# [4] = target: Fuc(a1-2)Gal(b1-4)[Fuc(a1-3)]GlcNAc(b1-3)Gal(b1-4)[Fuc(a1-3)]GlcNAc(b1-3)Gal(b1-4)[Fuc(a1-3)]GlcNAc
# Method in brief: as §1
# [5] = target: Fuc(a1-2)Gal(b1-4)[Fuc(a1-3)]GlcNAc(b1-3)GalNAc
# Method in brief: as §1
# [6] = target: Fuc(a1-2)Gal(b1-4)[Fuc(a1-3)]GlcNAc(b1-3)[Neu5Ac(a2-6)Gal(b1-4)GlcNAc(b1-6)]Gal(b1-4)Glc
# Method in brief: as §1
# [7] = target: Fuc(a1-2)Gal3S(b1-4)GlcNAc
# Method in brief: as §1
# [8] = target: Fuc(a1-2)Gal6S(b1-3)GlcNAc
# Method in brief: as §1
# [9] = target: Fuc(a1-2)Gal6S(b1-3)GlcNAc6S
# Method in brief: as §1
# [10] = target: Fuc(a1-2)Gal6S(b1-4)Glc
# Method in brief: as §1
# [11] = target: Fuc(a1-2)Gal6S(b1-4)Glc6S
# Method in brief: as §1
# [12] = target: Fuc(a1-2)[Gal(a1-3)]Gal
# Method in brief: as §1
# [13] = target: Fuc(a1-2)[Gal(a1-3)]Gal(b1-3)GalNAc
# Method in brief: as §1
# [14] = target: Fuc(a1-2)[Gal(a1-3)]Gal(b1-3)GalNAc(b1-3)Gal(a1-4)Gal(b1-4)Glc
# Method in brief: as §1
# [15] = target: Fuc(a1-2)[Gal(a1-3)]Gal(b1-3)GlcNAc
# Method in brief: as §1
# [16] = target: Fuc(a1-2)[Gal(a1-3)]Gal(b1-3)GlcNAc(b1-2)Man(a1-3)[Fuc(a1-2)[Gal(a1-3)]Gal(b1-3)GlcNAc(b1-2)Man(a1-6)]Man(b1-4)GlcNAc(b1-4)GlcNAc
# Method in brief: as §1
# [17] = target: Fuc(a1-2)[Gal(a1-3)]Gal(b1-3)GlcNAc(b1-2)Man(a1-3)[Fuc(a1-2)[Gal(a1-3)]Gal(b1-3)GlcNAc(b1-2)Man(a1-6)]Man(b1-4)GlcNAc(b1-4)[Fuc(a1-6)]GlcNAc
# Method in brief: as §1
# [18] = target: Fuc(a1-2)[Gal(a1-3)]Gal(b1-3)GlcNAc(b1-3)GalNAc
# Method in brief: as §1
# [19] = target: Fuc(a1-2)[Gal(a1-3)]Gal(b1-3)GlcNAc(b1-6)GalNAc
# Method in brief: as §1
# [20] = target: Fuc(a1-2)[Gal(a1-3)]Gal(b1-4)Glc
# Method in brief: as §1
# [21] = target: Fuc(a1-2)[Gal(a1-3)]Gal(b1-4)GlcNAc
# Method in brief: as §1
# [22] = target: Fuc(a1-2)[Gal(a1-3)]Gal(b1-4)GlcNAc(b1-2)Man
# Method in brief: as §1
# [23] = target: Fuc(a1-2)[Gal(a1-3)]Gal(b1-4)GlcNAc(b1-2)Man(a1-3)[Fuc(a1-2)[Gal(a1-3)]Gal(b1-4)GlcNAc(b1-2)Man(a1-6)]Man(b1-4)GlcNAc(b1-4)GlcNAc
# Method in brief: as §1
# [24] = target: Fuc(a1-2)[Gal(a1-3)]Gal(b1-4)GlcNAc(b1-2)Man(a1-3)[Fuc(a1-2)[Gal(a1-3)]Gal(b1-4)GlcNAc(b1-2)Man(a1-6)]Man(b1-4)GlcNAc(b1-4)[Fuc(a1-6)]GlcNAc
# Method in brief: as §1
# [25] = target: Fuc(a1-2)[Gal(a1-3)]Gal(b1-4)GlcNAc(b1-3)GalNAc
# Method in brief: as §1
# [26] = target: Fuc(a1-2)[Gal(a1-3)]Gal(b1-4)GlcNAc(b1-6)GalNAc
# Method in brief: as §1
# [27] = target: Fuc(a1-2)[Gal(a1-3)]Gal(b1-4)[Fuc(a1-3)]Glc
# Method in brief: as §1
# [28] = target: Fuc(a1-2)[Gal(a1-3)]Gal(b1-4)[Fuc(a1-3)]GlcNAc
# Method in brief: as §1
# [29] = target: Fuc(a1-2)[Gal(a1-3)]Gal(b1-4)[Fuc(a1-3)]GlcNAc(b1-3)GalNAc
# Method in brief: as §1
# [30] = target: Fuc(a1-2)[Gal(a1-4)]Gal(b1-4)GlcNAc
# Method in brief: as §1
# [31] = target: Fuc(a1-2)[GalNAc(a1-3)]Gal
# Method in brief: as §1
# [32] = target: Fuc(a1-2)[GalNAc(a1-3)]Gal(b1-3)GalNAc(a1-3)[Fuc(a1-2)]Gal(b1-4)GlcNAc
# Method in brief: as §1
# [33] = target: Fuc(a1-2)[GalNAc(a1-3)]Gal(b1-3)GalNAc(b1-3)Gal(a1-4)Gal(b1-4)Glc
# Method in brief: as §1
# [34] = target: Fuc(a1-2)[GalNAc(a1-3)]Gal(b1-3)GlcNAc
# Method in brief: as §1
# [35] = target: Fuc(a1-2)[GalNAc(a1-3)]Gal(b1-3)GlcNAc(b1-2)Man(a1-3)[Fuc(a1-2)[GalNAc(a1-3)]Gal(b1-3)GlcNAc(b1-2)Man(a1-6)]Man(b1-4)GlcNAc(b1-4)GlcNAc
# Method in brief: as §1
# [36] = target: Fuc(a1-2)[GalNAc(a1-3)]Gal(b1-3)GlcNAc(b1-2)Man(a1-3)[Fuc(a1-2)[GalNAc(a1-3)]Gal(b1-3)GlcNAc(b1-2)Man(a1-6)]Man(b1-4)GlcNAc(b1-4)[Fuc(a1-6)]GlcNAc
# Method in brief: as §1
# [37] = target: Fuc(a1-2)[GalNAc(a1-3)]Gal(b1-3)GlcNAc(b1-3)GalNAc
# Method in brief: as §1
# [38] = target: Fuc(a1-2)[GalNAc(a1-3)]Gal(b1-3)GlcNAc(b1-6)GalNAc
# Method in brief: as §1
binder,measurement,setting,value
Fm1D (Escherichia coli) (protein) FSCNVDGGSSIGAGTTSVYVNLDPVIQPGQNLVVDLSQHISCWNDYGGWYDTDHINLVQGSAFAGSLQSYKGSLYWNNVTYPFPLTTNTNVLDIGDKTPMPLPLKLYITPVGAAGGVVIKAGEVIARIHMYKIATLGSGNPRNFTWNIISNNSVVMPTHHHHHH,glycan array binding signal (z-score),[1],-0.142
same,glycan array binding signal (z-score),[2],-0.142
same,glycan array binding signal (z-score),[3],-0.138
same,glycan array binding signal (z-score),[4],-0.135
same,glycan array binding signal (z-score),[5],-0.122
same,glycan array binding signal (z-score),[6],-0.143
same,glycan array binding signal (z-score),[7],-0.144
same,glycan array binding signal (z-score),[8],-0.144
same,glycan array binding signal (z-score),[9],-0.133
same,glycan array binding signal (z-score),[10],-0.149
same,glycan array binding signal (z-score),[11],-0.14
same,glycan array binding signal (z-score),[12],-0.139
same,glycan array binding signal (z-score),[13],-0.134
same,glycan array binding signal (z-score),[14],-0.141
same,glycan array binding signal (z-score),[15],-0.141
same,glycan array binding signal (z-score),[16],-0.147
same,glycan array binding signal (z-score),[17],-0.136
same,glycan array binding signal (z-score),[18],-0.144
same,glycan array binding signal (z-score),[19],-0.131
same,glycan array binding signal (z-score),[20],-0.147
same,glycan array binding signal (z-score),[21],-0.143
same,glycan array binding signal (z-score),[22],-0.143
same,glycan array binding signal (z-score),[23],-0.142
same,glycan array binding signal (z-score),[24],-0.143
same,glycan array binding signal (z-score),[25],-0.143
same,glycan array binding signal (z-score),[26],-0.145
same,glycan array binding signal (z-score),[27],-0.143
same,glycan array binding signal (z-score),[28],-0.14
same,glycan array binding signal (z-score),[29],-0.145
same,glycan array binding signal (z-score),[30],-0.144
same,glycan array binding signal (z-score),[31],-0.126
same,glycan array binding signal (z-score),[32],0.047
same,glycan array binding signal (z-score),[33],0.02
same,glycan array binding signal (z-score),[34],-0.146
same,glycan array binding signal (z-score),[35],-0.144
same,glycan array binding signal (z-score),[36],-0.145
same,glycan array binding signal (z-score),[37],-0.144
same,glycan array binding signal (z-score),[38],-0.126

# Reference: the supplement of paper PMC8728848
